According to PubChem BioAssay AID1030 (National Center for Advancing Translational Sciences (NCATS), 2008):
The whole screen tested about 220,000 compounds, of which about 16,000 (7.3%) were called active. The inconclusive results got no clear call from the source; some entries with a clear call stand among them for comparison. Calls follow the shape of the dose curve; as a rule, active = well fitted inhibition curve with a large enough effect (not every such curve was filed as active); inconclusive = small, poorly fitted or top-dose-only effect, or another doubt; inactive = no such curve, though single readings can be large or run the other way. Potencies of inconclusive entries are left out as doubtful fits.
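For activity, negative = inhibition in this document: plate controls were no enzyme wells and a reference inhibitor.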
Potency is read from the fitted curve at half-maximal effect; tags tell the direction and shape of the fitted curve.

The molecules below were run against Aldehyde dehydrogenase 1A1 (Homo sapiens) (UniProt P00352) (assay: qHTS Assay for Inhibitors of Aldehyde Dehydrogenase 1 (ALDH1A1)). Conditions: Purified ALDH1A1, NADH fluorescence, propionaldehyde substrate; series mostly up to 75.3 µM.
Chain of UniProt P00352 (P00352 whole entry, looked up): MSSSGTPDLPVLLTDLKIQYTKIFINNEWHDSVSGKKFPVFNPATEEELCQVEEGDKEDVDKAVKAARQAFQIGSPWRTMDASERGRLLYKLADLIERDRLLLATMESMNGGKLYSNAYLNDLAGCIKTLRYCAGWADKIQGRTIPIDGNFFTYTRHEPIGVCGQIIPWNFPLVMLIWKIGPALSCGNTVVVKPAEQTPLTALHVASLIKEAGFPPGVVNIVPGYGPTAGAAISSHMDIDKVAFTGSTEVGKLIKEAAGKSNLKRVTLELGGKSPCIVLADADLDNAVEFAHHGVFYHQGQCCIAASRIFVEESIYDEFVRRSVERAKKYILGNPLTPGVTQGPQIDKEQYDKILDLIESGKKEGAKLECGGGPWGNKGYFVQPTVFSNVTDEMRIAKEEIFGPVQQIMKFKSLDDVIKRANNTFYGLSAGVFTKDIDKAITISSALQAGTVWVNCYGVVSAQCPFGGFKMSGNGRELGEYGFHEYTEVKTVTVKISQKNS
For `O=C(O)C(Cc1ccccc1)N1C(=O)/C(=C/c2cccc3ccccc23)SC1=S` (stereo not given), the Potency was inconclusive [inhibitor, partial curve]. In the case of `CC1CCN(c2c(NCc3ccc(C(=O)N4CCc5ccccc54)cc3)c(=O)c2=O)CC1`, the Potency is reported as inconclusive [inhibitor, partial curve]. `COc1ccc(OC)c(/C=C/C(=O)OCC(=O)Nc2ccc3c(c2)OCCO3)c1` was tested, and the Potency was inconclusive [inhibitor, partial curve]. `COC(=O)c1sccc1-c1ccc(/C=N/OC(=O)c2cccs2)o1` was tested, and the Potency was inconclusive [inhibitor, single point]. For `COc1ccc(N=C2S/C(=C\c3ccc(OC(C)C(=O)O)c(OC)c3)C(=O)N2CCc2c[nH]c3ccccc23)cc1` (stereo not given), the Potency was active: 14.1 µM. With `O=[N+]([O-])c1ccccc1OCCCn1cnc2ccccc21` the Potency was inconclusive [inhibitor, single point]. For `COc1ccc([C@@H]2C[C@H]3CN(c4ccccc4)C(=O)[C@]34CCCN24)c(OC)c1OC`, the Potency was “inactive”. For `COc1cc(C(c2sc3ncnn3c2O)N2CCN(c3ccccc3F)CC2)cc(OC)c1OC` (stereo not given), the Potency was inconclusive [inhibitor, single point]. With `Cc1[nH]c2ccccc2c1C(c1ccncc1)N1CCN(c2ccccn2)CC1` (stereo not given) the Potency was inconclusive [inhibitor, single point]. For `C=CCN=C1SC(CC)C(=O)N1S(=O)(=O)c1ccc(C)cc1` (stereo not given), the Potency was active: 6.31 µM. In the case of `CC(C)OCCCNC(=O)c1ccc(NC(=O)C2CCCO2)cc1` (stereo not given), the Potency is reported as “inactive”. For `COc1cc(C(=O)NNC(=S)NC(=O)c2ccccc2C)cc(OC)c1OC`, the Potency was “inactive”. For `CC(=O)NC1C(=O)N(CCc2ccccc2)c2ccc(Br)cc21` (stereo not given), the Potency was inconclusive [inhibitor, full curve]. For `CCOC(=O)c1c(NC(=O)CSc2nnc(-c3ccccc3)o2)sc(C(C)=O)c1C`, the Potency was inconclusive [inhibitor, partial curve]. `CC(=NCCN1CCN(C(=S)Nc2ccccc2)CC1)C1=C(O)CC(C)(C)CC1=O` was tested, and the Potency was inconclusive [inhibitor, single point]. `CC(C)CN(C(=O)CN1CCN(c2ccc([N+](=O)[O-])cc2)CC1)c1c(N)n(CC(C)C)c(=O)[nH]c1=O` was tested, and the Potency was inconclusive [inhibitor, single point]. For `C/C(=N\N=C\c1ccc(N(C)C)cc1)c1cccc([N+](=O)[O-])c1`, the Potency was inconclusive [inhibitor, full curve, poor fit]. `COc1ccc(OCC2Cc3c(-c4ccccc4)nc4c(c3CO2)CN(CCOc2ccccc2)CC4)cc1` (stereo not given) was tested, and the activity, negative = inhibition was inactive: -7.85% [at 13.5 µM]. With `COc1ccccc1/C=C/C(=O)NC(=S)N(C)C1CCCCC1` the Potency was inconclusive [inhibitor, partial curve]. With `Cc1ccc(C(=O)CSc2nnc(-c3ccccc3N)n2C)cc1` the Potency was active: 11.2 µM. `CN1CCc2c(sc(/N=C/c3cccs3)c2C(N)=O)C1` was tested, and the Potency was inconclusive [inhibitor, single point]. In the case of `Cc1ccc2c(c1)[nH]c1c(N3CCN(Cc4ccccc4)CC3)ncnc12`, the Potency is reported as inconclusive [inhibitor, single point]. `COc1ccc(C(=O)N2CCN(Cc3cn[nH]c3-c3ccc(OC)cc3F)CC2)cc1` was tested, and the Potency was active: 1 µM. In the case of `CC(=O)CSc1cc(C)nc2c(-c3ccccc3)c(C)nn12`, the Potency is reported as inconclusive [inhibitor, partial curve]. With `COCCN(C(=O)Cc1cccs1)C(C(=O)NCc1ccc(OC)cc1)c1ccccc1` (stereo not given) the Potency was active: 25.1 µM. In the case of `Cc1nc2c(S(=O)(=O)c3ccccc3)cnn2c(C)c1C`, the Potency is reported as inconclusive [inhibitor, single point]. `Cc1ccc2c(COC(=O)c3c(C)noc3C)cc(=O)oc2c1` was tested, and the Potency was inconclusive [inhibitor, partial curve]. For `COc1ccc(Oc2nc3c(c(=O)n(C)c(=O)n3C)n2Cc2cccc(OC)c2)cc1`, the Potency was “inactive”. `O=C(NC1(C(F)(F)F)C(=O)Nc2c1c(=O)[nH]c(=O)n2Cc1ccccc1)c1ccc(Cl)cc1Cl` (stereo not given) was tested, and the Potency was “inactive”. With `CN(C)c1ccc(/C=C/c2ccc3c4ccccc4ccc3[n+]2-c2ccccc2)cc1` the Potency was active: 12.6 µM. `CC(=O)c1ccc(NC(=O)c2noc(C(C)C)c2[N+](=O)[O-])cc1` was tested, and the Potency was inconclusive [inhibitor, single point]. `CC(=O)c1sc(N/N=C\c2cccc(Br)c2)nc1C` was tested, and the Potency was active: 25.1 µM. `COCCn1c(-c2ccccc2)nc2oc3ccccc3c(=O)c2c1=O` was tested, and the Potency was inconclusive [inhibitor, single point]. For `c1coc(CNc2nc(N3CCCCC3)nc3ccccc23)c1`, the Potency was inconclusive [inhibitor, single point]. With `Cc1ccccc1-n1nnnc1SCC(=O)c1c(N)n(C)c(=O)n(C)c1=O` the Potency was active: 0.355 µM. With `Cc1nnc(N2C(=O)c3cccc4cccc(c34)C2=O)s1` the Potency was inconclusive [inhibitor, single point]. For `CN(C)S(=O)(=O)c1ccc(Cl)c(NC(=O)COC(=O)c2cc(-c3ccccc3)nc3ccccc23)c1`, the Potency was inconclusive [inhibitor, single point]. With `COc1cccc(C2NC(=O)NC(C)=C2C(=O)Nc2cc(OC)ccc2OC)c1` (stereo not given) the Potency was inconclusive [inhibitor, single point]. For `COc1ccc(CC(=S)N2CCOCC2)cc1OC`, the Potency was “inactive”. With `O=C(c1ccc(-c2ccccc2)cc1)N1CCN(c2ccccn2)CC1` the Potency was inconclusive [inhibitor, single point]. For `CN(C)S(=O)(=O)c1cccc(NC(=O)CN2C(=O)NC(Cc3c[nH]c4ccccc34)C2=O)c1` (stereo not given), the Potency was “inactive”. In the case of `COc1cc2c3c(c1)C1(C(=O)N3C(C)(C)C=C2C)C(C#N)=C(N)Oc2cc(C)oc(=O)c21` (stereo not given), the Potency is reported as active: 3.98 µM. For `CC(C)CCNC(=O)C(=O)NCCC1=CCCCC1`, the Potency was “inactive”. In the case of `Cc1ccc2oc(-c3ccc(NC(=O)CC(C)C)cc3)nc2c1`, the Potency is reported as inconclusive [inhibitor, full curve]. For `C/C(NC(=O)c1ccccc1)=C1/C(=O)CC2C1C2(C)C` (stereo not given), the Potency was inconclusive [inhibitor, single point]. `CC(C)(C)OC(=O)N1CCN(C(=O)c2cccnc2Cl)CC1` was tested, and the Potency was “inactive”. For `COc1ccccc1-c1nnc(SCC(=O)Nc2c(Cl)cccc2Cl)o1`, the Potency was active: 22.4 µM. `COc1ccc2[nH]c(=O)c(CN(C(=O)c3cccnc3)c3ccc(C)cc3)cc2c1` was tested, and the Potency was inconclusive [inhibitor, partial curve]. In the case of `O=C(NNC(=S)NC(=O)c1cn(-c2ccccc2)nc1-c1ccccc1)c1ccncc1`, the Potency is reported as inconclusive [inhibitor, single point]. `O=C(O)C1CC=CCC1C(=O)Nc1ccccc1C(=O)N1CCN(c2ccccc2)CC1` (stereo not given) was tested, and the Potency was “inactive”. With `CCCN(C(=O)CCl)C1=CCCCC1` the Potency was active: 0.708 µM. For `O=C(COC(=O)c1ccc(Cl)c(S(=O)(=O)NCc2ccccc2)c1)NCC1CCCO1` (stereo not given), the Potency was inconclusive [inhibitor, partial curve]. With `O=C(CN1C(=O)/C(=C/c2ccccc2F)Oc2ccccc21)N1CCN(c2ccccn2)CC1` the Potency was inconclusive [inhibitor, single point]. With `COc1ccc(Nc2cc(=O)oc3ccccc23)cc1` the Potency was inconclusive [inhibitor, single point]. For `CC(C)CN(CC(C)C)S(=O)(=O)N1CCC(C(=O)NCc2cccnc2)CC1`, the Potency was “inactive”. With `CC1CC(C)CN(S(=O)(=O)c2ccc(Oc3ccc([N+](=O)[O-])cc3)cc2)C1` (stereo not given) the Potency was inconclusive [inhibitor, single point]. With `COn1c(SC2CCCCC2)nc2ccccc2c1=O` the Potency was active: 31.6 µM. In the case of `Cc1nn(-c2ccccc2)c(Cl)c1C(=O)Nc1nnc(C2CCCCC2)s1`, the Potency is reported as active: 3.98 µM. With `COCc1cc(C)nc(OCC(=O)N/N=C/c2ccc(-c3cccc([N+](=O)[O-])c3)o2)c1C#N` the Potency was inconclusive [inhibitor, single point]. With `Cc1ccc(NC(=O)COc2ccc(C3SCCS3)cc2)cc1` the Potency was “inactive”. For `COc1ccc(C(=O)CSc2nnnn2C)c(OC)c1`, the Potency was inconclusive [inhibitor, single point]. With `COC(=O)c1c(NC(=O)COC(=O)CNC(=O)c2ccco2)sc(C)c1C` the Potency was inconclusive [inhibitor, single point]. With `O=S(=O)(c1ccccc1)N1CCC2(CCCN(c3ncccn3)C2)CC1` the Potency was “inactive”. With `COc1ccc(NC(=O)N2CC3(CCN(C(=O)c4csnn4)CC3)C2)cc1` the Potency was “inactive”. In the case of `O=C(NCc1ccccn1)c1ccc(Cn2cc(Br)cn2)o1`, the Potency is reported as “inactive”. `N=C1/C(=C/c2cccn2-c2ccc([N+](=O)[O-])cc2)C(=O)N=C2SC=CN12` was tested, and the Potency was inconclusive [inhibitor, single point]. In the case of `O=C1c2ccccc2NC(c2cccnc2)N1c1ccccc1F` (stereo not given), the Potency is reported as inconclusive [inhibitor, partial curve]. In the case of `O=C(COc1ncnc2ccccc12)c1ccc(Cl)cc1`, the Potency is reported as “inactive”. In the case of `COc1ccc(C2CC(=O)C=C(NNS(=O)(=O)c3ccc(C)cc3)C2)cc1` (stereo not given), the Potency is reported as inconclusive [inhibitor, partial curve]. `Cc1ccc(-c2nc(CSCC(=O)N3CCCC3)c(C)o2)cc1` was tested, and the Potency was inconclusive [inhibitor, partial curve, poor fit].
